Experimental data published in PubChem BioAssay AID504703 (Southern Research Specialized Biocontainment Screening …, 2011).
A number of entries come with more than one value. This list holds those alone. An entry can have further records. Values that stand side by side are repeated measurements (runs, samples, wells, individuals or studies). Records carry a tag for their origin. Letters count within one entry.

Tested on: M. tuberculosis H37Rv growth inhibition with meropenem
Test: H37Rv growth inhibition with and without meropenem, dose response, set 2 (AID 504703);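 further: growth ran 7 days at 37 °C then overnight with Alamar Blue before reading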
Settings: measured here: IC50 without meropenem

`COc1ccc2oc(C(=O)Nc3nc4ccccc4[nH]3)c(C)c2c1` was tested, and the IC50 was 460 nM [sample A] and 14.3 µM [sample B].
